Source: paper PMC6919601, “Identification of Plasmodium dipeptidyl aminopeptidase allosteric inhibitors by high throughput screening” (PLoS ONE, 2019)
About 230 (0.21%) of roughly 110,000 compounds showed an effect of 50% or more. The list shows a part of the results.

What follows are compounds tested against DPAP1 (Plasmodium falciparum, UniProt Q8IIJ9) (assay: primary screen, percent inhibition; read by cleavage of a fluorogenic dipeptide substrate; higher = more effect of the substance).
Design: species or system P. falciparum D10 trophozoite lysates; single well
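Further: 30 min substrate incubation versus DMSO and 10 µM JCP410 controls.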

Sequence of DPAP1 (Q8IIJ9 whole entry, looked up): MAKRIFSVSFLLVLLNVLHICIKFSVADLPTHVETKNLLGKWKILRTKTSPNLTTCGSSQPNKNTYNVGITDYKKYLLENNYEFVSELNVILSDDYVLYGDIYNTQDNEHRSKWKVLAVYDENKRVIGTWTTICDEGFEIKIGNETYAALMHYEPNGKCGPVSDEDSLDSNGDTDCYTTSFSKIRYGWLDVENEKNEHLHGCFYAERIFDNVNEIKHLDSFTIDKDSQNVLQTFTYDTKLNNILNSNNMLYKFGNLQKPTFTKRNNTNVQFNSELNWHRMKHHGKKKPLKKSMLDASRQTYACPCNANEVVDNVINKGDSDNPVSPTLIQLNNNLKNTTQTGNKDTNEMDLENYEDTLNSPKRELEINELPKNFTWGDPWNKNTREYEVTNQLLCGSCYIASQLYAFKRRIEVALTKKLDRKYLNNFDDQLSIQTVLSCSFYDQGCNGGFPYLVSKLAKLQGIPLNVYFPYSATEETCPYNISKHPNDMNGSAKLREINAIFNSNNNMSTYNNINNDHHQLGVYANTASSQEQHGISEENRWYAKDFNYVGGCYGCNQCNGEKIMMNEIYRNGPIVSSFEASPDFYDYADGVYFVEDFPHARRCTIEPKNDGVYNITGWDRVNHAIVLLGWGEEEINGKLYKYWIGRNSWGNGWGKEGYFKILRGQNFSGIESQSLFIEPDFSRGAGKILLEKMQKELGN

Structure (SMILES)	% Inhibition @ 10 uM [%]
Cc1ccc(C(=O)Nc2sc3c(c2C(=O)N2CCOCC2)CCCCC3)cc1	-2.83
FC(F)(F)c1cccc(-c2nnn3c2nc(NCc2ccccc2)c2ccccc23)c1	-2.92
CC(C)CCNc1cc(-c2ccccc2)nc2nncn12	-0.808
COc1ccccc1C(=O)Nc1ccc(F)c(F)c1	13.3
COc1ccc(CCNC(=O)c2cc(-c3ccc(O)cc3)on2)cc1OC	-4.07
CO/C(O)=C1\C(C)=NC2=C(C(=O)CC(c3cccs3)C2)C1c1ccsc1 (stereo not shown)	3.86
COc1ccc(C=O)cc1Br	-1.68
COc1cc(/C=c2/sc3nc(=O)c(Cc4ccc(F)cc4)nn3c2=O)cc(OC)c1OC	2.9
CCOc1ccccc1NC(=O)C1=C(C)NC(=O)NC1c1ccccc1 (stereo not shown)	-5.69
Cc1cccn2c(=O)c3cc(C(=O)NC4CCS(=O)(=O)C4)n(C)c3nc12 (stereo not shown)	5.31
CC(=O)c1ccc(N2CCN(C3CCN(Cc4ccccc4)CC3)CC2)cc1	3.18
COc1ccc2[nH]c3c(OC)ncnc3c2c1	1.54
CCCc1c(C)nc2ccc(OCCC(C)C)cc2c1Cl	-1.99
N#CCNC(=O)[C@@H](CS(=O)(=O)CC1c2ccccc2-c2ccccc21)NC(=O)OCc1ccccc1	4.54
N#Cc1nc(/C=C/c2ccc(F)cc2)oc1N1CCOCC1	0.895
CC(NC(=O)CCCc1nnc2n(C)c(=O)c3sccc3n12)c1ccc2c(c1)OCCO2 (stereo not shown)	-1.31
COc1ccc(C(=O)NC(=S)N2CCCCCC2)cc1	-5.11
CCc1c(C)sc(N)c1C(=O)OC	1.6
O=C(Nc1ccc(Br)cc1)c1cc2ccccc2oc1=O	-0.771
COc1ccc(OC)c(NS(=O)(=O)c2ccc(NC(=O)c3ccc(Cl)cc3Cl)cc2)c1	-2.38
CCOc1cc(C2NC(S)=NC(C)=C2C(=O)Nc2ccccn2)ccc1OCc1ccccc1 (stereo not shown)	3.06
Cc1ccc(-c2cc(NC(=O)c3ccccc3F)on2)cc1	-3.24
COc1cccc(C2=NOC(C(=O)NC3CCCCC3)C2)c1OC (stereo not shown)	-2.16
Cc1ccc(NC(=O)CC[C@H](NC(=O)c2ccc(Br)cc2)C(=O)NCC#N)cc1	3.19
CCOC(=O)c1ccc(-c2ccc(C=C3C(=O)N(C)C(=O)N(C)C3=O)o2)cc1	2.7

Structure (SMILES)	% Inhibition @ 10 uM [%]
CCc1c(C)sc(NC(=O)Cc2ccc(F)cc2)c1C(N)=O	11.4
c1cc2c(cc1CNCc1ccc3c(c1)OCO3)OCO2	0.331
COc1cc(C)nc(-c2ccc([N+](=O)[O-])cc2)n1	-1.99
CCOC(=O)c1c(-c2ccccc2)csc1NC(=O)c1cc(=O)c2cc(Cl)ccc2o1	-6.98
C=CCOc1ccc(/C=c2\sc3nc(=O)c(Cc4ccc(C)cc4)nn3c2=O)cc1OC	-4.14
CCOC(=O)C1=C(CS(=O)(=O)c2ccc(Cl)cc2)NC(=O)NC1c1ccc(O)c(OC)c1 (stereo not shown)	-3.94
Cc1ccc(OC(C)C(=O)Nc2ccc3c(c2)OCO3)cc1 (stereo not shown)	-0.95
CCNc1nc(N)c(C(=O)c2ccc(F)cc2)s1	0.0719
O=C(CSc1nnc(CNC(=O)c2cccs2)o1)NCc1ccc2c(c1)OCO2	0.163
Cc1ccc2c(c1)-c1c(cnn1CC(=O)N(CCCN1CCOCC1)Cc1ccco1)CO2	-4.01
O=C(NCCOCc1ccccc1)c1ccccc1Br	10.4
N#Cc1cnc2c(-c3ccc(Cl)cc3)cnn2c1N	3.19
CC1(C)CC2(CC(c3ccccc3)c3cc(Cl)c(O)cc3O2)NC(=O)N1 (stereo not shown)	-3.04
CC(C)Cn1cc(NC(=O)N2CCCN(Cc3ccccc3F)C2)c2ccccc2c1=O	-2.52
O=C(CS(=O)(=O)Cc1ccccc1)Nc1ccccc1Cl	3.92
CC(=O)CC(C)(C)S(=O)(=O)c1ccc2ccccc2c1	-0.687
CC(NC(=O)c1cccc2c1C(=O)N(C1CCCCC1)C2)c1cccs1 (stereo not shown)	-4.14
Nc1nc(CSc2nc3cccnc3[nH]2)nc(N2CCCCC2)n1	0.83
CCC(C)NS(=O)(=O)c1cc(-c2onc(C)c2C)ccc1OC (stereo not shown)	-6.66
CC(C)=CCCC(C)CN1CCN(CCOCCO)CC1 (stereo not shown)	1.62
O=C(Nc1cccc2cccnc12)[C@@H]1C2C=CC(C2)[C@@H]1C(=O)O (stereo partly shown)	-0.999
CCOC(=O)c1cc(-c2ccccc2)n(CCC(=O)N(C)Cc2ccccc2)c1	-0.176
C=CCOC(=O)C1=C(C)N=C2CC(C)(C)CC(O)=C2C1c1cccc(Br)c1 (stereo not shown)	-2.18
Cc1cc(C)nc(Nc2n[nH]c(-c3ccc(Cl)cc3Cl)n2)n1	-7.22
COc1ccc(-c2nc3cc(C)ccn3c2NC(=O)CCc2ccccc2)cc1OC	1.5

Structure (SMILES)	% Inhibition @ 10 uM [%]
COc1cc(CN2CCN(c3ccccc3)CC2)cc(OC)c1	-1.22
CCOc1ccc(C(=O)Nc2ccccc2C(F)(F)F)cc1	-3.39
O=C1CC2CS(=O)(=O)CC2N1c1ccc(OC(F)(F)Cl)cc1 (stereo not shown)	-4.91
CC1CCN(S(=O)(=O)c2ccc(NC(=O)c3ccccc3Cl)cc2)CC1	-3.01
O=C(O)Cc1c[nH]c2ccc(O)cc12	-3.58
Cc1cc(=O)sc2c1c1ccccc1n2C	-0.545
Cc1nc2c(-c3ccccc3)c(C)nn2c(C)c1CCC(=O)Nc1ccccn1	-4.1
Cc1nn(C(=O)CCCC(=O)NCC2CCCO2)c2ccccc12 (stereo not shown)	0.596
COc1ccc(CCn2c(SCC(=O)N3CCCC(C)C3)nc3ccsc3c2=O)cc1OC (stereo not shown)	-1.8
N#CC1=C(N)Oc2c(oc(CO)cc2=O)C1c1ccccc1C(F)(F)F (stereo not shown)	4.97
CCOc1ccc(/C=C(\C#N)c2nc(O)c3ccccc3n2)cc1	-3.09
O=C(CN1CCN(Cc2ccc(F)cc2Cl)S1(=O)=O)NCc1ccco1	-4.18
CCOC(=O)c1cnc2ccccc2c1O	-0.216
Cn1c(=O)c2ncn(CC(=O)Nc3ccc(-c4nc5ccccc5s4)cc3)c2n(C)c1=O	20.6
CCOC(=O)c1ccc(OCc2c(C)noc2C)cc1	-5.28
CCC(Sc1nnnn1-c1ccccc1)C(=O)NC1=NN=C(c2ccc(C)cc2)CS1 (stereo not shown)	1.12
CCN(CC)C(=O)N1CCC/C1=N\c1ccc(Cl)cc1	-0.99
CCNC(=O)c1c(NC(=O)c2cccs2)sc2c1CCC(C(C)(C)C)C2 (stereo not shown)	-4.52
O=C(CSc1nc2ccccc2[nH]1)c1ccc(Cl)cc1	4.89
N#Cc1cc(Cc2ccc(N)c(C#N)c2)ccc1N	4.69
CCOc1c(Cl)cc(/C=C2/C(=N)N3OC(C)=CC3=NC2=O)cc1OC	-5.1
CCCCN(C)Cc1cccc([N+](=O)[O-])c1	-1.78
O=C(c1ccc(F)cc1)N1CCN(C/C=C/c2ccccc2)CC1	0.847
O=C(CCCCN1C(=O)c2ccccc2C1=O)Nc1nc(-c2ccccc2)cs1	3.05
CO/C(O)=C1\C(C)=NC2=C(C(=O)CC(C)(C)C2)C1c1cccc(Cl)c1Cl (stereo not shown)	3.05

Structure (SMILES)	% Inhibition @ 10 uM [%]
CN1CCN(C(=O)CN(Cc2ccccc2)S(=O)(=O)c2ccc(Cl)cc2)CC1	-9.26
CCCOc1ccc(-c2csc3ncn(Cc4ccc(C(=O)O)cc4)c(=O)c23)cc1	6.68
Cc1nn(C)c(C)c1CNC(=O)c1cnn2c1NC(c1ccccc1)CC2C(F)(F)F (stereo not shown)	-5.85
COc1cccc(-c2nc(CS(=O)(=O)CC(=O)NC(C)c3ccccc3)c(C)o2)c1 (stereo not shown)	-3.7
Cc1ccc(NC(=O)c2ccccc2Br)cc1O	2.42
COC(=O)c1nnn(-c2cc(C)cc(C)c2)c1C(=O)OC	-1.58
N#Cc1cnc(O)c(C#N)c1Nc1ccccc1	4.42
CCN1C(=O)CC(N2CCC(c3nc4ccccc4[nH]3)CC2)C1=O (stereo not shown)	4.61
CCc1ccc(S(=O)(=O)N2CC(=O)Nc3ccccc32)cc1	-3.01
Cc1ccc(S(=O)(=O)Cc2ccc(C(=O)NCCc3ccccc3)o2)cc1	2.14
CC(C)Oc1ccc(-c2nc3s/c(=C\c4ccccc4)c(=O)n3n2)cc1	-1.25
CCOc1ccccc1C1CC(=O)NC2=C1C(=O)CC(c1ccc(F)cc1)C2 (stereo not shown)	2.54
Fc1ccccc1OCCCn1ccnc1	3.48
CC(C)(C)C(=O)Nc1sc2c(c1C(=O)O)CCCC2	2.86
NS(=O)(=O)c1ccc(NC(=O)c2ccc(N3C(=O)c4ccccc4C3=O)cc2)cc1	1.96
COc1ccc(OCC(O)COc2ccc(OC)cc2)cc1	0.408
CCOC(=O)N1CCN(C(=O)/C(=C/c2ccccc2Cl)c2ccccc2)CC1	0.408
N#Cc1c(N)nc2c(c1-c1ccc([N+](=O)[O-])cc1)CCC2	4.51
COc1ccc(C(=O)Nc2ccccc2C#N)cc1OC	2.33
CSc1nc2sc3c(c2c(=O)n1-c1ccccc1)CCN(C)C3	-1.66
CC(C)OCCCNC(=O)Cc1c(C(=O)O)[nH]c2ccccc12	-3.48
CCOC(=O)c1cc2c(=O)n3ccccc3nc2n(CCOC)/c1=N\C(=O)C(CC)c1ccccc1 (stereo not shown)	-3.78
CCCc1nnc2sc(NC(=O)CC)nn12	-3.42
Cc1ccccc1NC(=O)CN(c1cccc2ccccc12)S(C)(=O)=O	5.29
Cc1ccc(Cn2c(=O)c(C#N)cc3c(=O)n4ccccc4nc32)cc1	1.12
